Some of these densities may be calculated back from excess volumes.
Assay: xn = mol fraction of the nth substance listed
Details: 101 kPa

CC[n+]1ccn(C)c1.N#C[N-]C#N + CCCC[N+](C)(CCCC)CCCC.N#C[N-]C#N
mass density (293.15 K, x1 = 1): 1105 kg/m3 | mass density (313.15 K, x1 = 1): 1091.8 kg/m3 | mass density (333.15 K, x1 = 1): 1078.9 kg/m3

CCCC[N+](C)(CCCC)CCCC.N#C[N-]C#N + CC[n+]1ccn(C)c1.N#C[N-]C#N
mass density (293.15 K, x2 = 0): 947.5 kg/m3 | mass density (293.15 K, x2 = 0.2114): 968.1 kg/m3 | mass density (293.15 K, x2 = 0.3975): 990.1 kg/m3 | mass density (293.15 K, x2 = 0.6047): 1020.4 kg/m3 | mass density (293.15 K, x2 = 0.8003): 1056.8 kg/m3 | mass density (313.15 K, x2 = 0): 936.7 kg/m3 | mass density (313.15 K, x2 = 0.2114): 957 kg/m3 | mass density (313.15 K, x2 = 0.3975): 978.7 kg/m3 | mass density (313.15 K, x2 = 0.6047): 1008.6 kg/m3 | mass density (313.15 K, x2 = 0.8003): 1044.4 kg/m3 | mass density (333.15 K, x2 = 0): 925.9 kg/m3 | mass density (333.15 K, x2 = 0.2114): 946 kg/m3 | mass density (333.15 K, x2 = 0.6047): 997 kg/m3 | mass density (333.15 K, x2 = 0.8003): 1032.2 kg/m3 | mass density (353.15 K, x2 = 0): 915.3 kg/m3 | mass density (353.15 K, x2 = 0.6047): 985.6 kg/m3 | mass density (353.15 K, x2 = 0.8003): 1020.3 kg/m3
